PubChem BioAssay AID1963576 (National Center for Advancing Translational Sciences (NCATS), 2024)
In all, about 46,000 compounds went through this assay and about 60 (0.1%) were called active. About 3% were inconclusive and are not listed. The call rests on the fitted dose curve; in most records, active means well fitted inhibition curve with a large enough effect; inconclusive means small, poorly fitted or top-dose-only effect; inactive means no such curve, though single readings can be large or run the other way. This is one part of the list.

Assay: Primary qHTS assay for Inhibitors of ovarian cancer metastasis using an organotypic tumor microenvironment (TME) model. Further: nearly all actives have a fitted effect of over 65% in size.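 On activity change, negative = inhibition: plate controls were DMSO wells for no effect and tomatine positive control wells for full effect.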
Conditions: SKOV3ip1-GFP adhesion/invasion on 3D omental model, fluorescence; series mostly up to 45.8 µM; activity change, negative = inhibition: at the top concentration
Procedure, shortened: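 Primary human omental fibroblast/mesothelial 3D culture pre-formed 48 h. SKOV3ip1-GFP cells added with compounds (0.36-46 umol/L), incubated 2 h RT/16 h 37 C, fixed; GFP cells quantified at 488/509 nm.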

Question: For `CCc1nn(CC(=O)NC(C)CC)c(=O)c2cc3occc3n12` (configuration not stated), which “outcome” value is on record?
Answer: inactive

Question: For `Cc1ccccc1NC(=O)c1ccc(N(Cc2ccccc2)S(C)(=O)=O)cc1`, which “activity change, negative = inhibition” value is on record?
Answer: inactive: 1.35%

Question: With `COc1ccc(CNC(=O)c2cnc3ccc(C)cn3c2=O)cc1` as the molecule, how does the “activity change, negative = inhibition” value read?
Answer: inactive: 7.39%

Question: With `Cc1c(Cl)cccc1NC(=O)c1cc2nc(-c3ccc4c(c3)OCO4)cc(C(F)(F)F)n2n1` as the molecule, how does the “outcome” value read?
Answer: inactive

Question: For `O=C(COc1ccccc1)OCc1cc(=O)n2nc(-c3cccs3)sc2n1`, which “activity change, negative = inhibition” value is on record?
Answer: inactive: -20.7%

Question: Which “activity change, negative = inhibition” value does the source give for `CC(C)OC(=O)OCOP(=O)(CO[C@H](C)Cn1cnc2c(N)ncnc21)OCOC(=O)OC(C)C` here?
Answer: inactive: 11.3%

Question: With `CCOCCCn1c(=N)c(S(=O)(=O)c2ccc(Cl)cc2)cc2c(=O)n3cccc(C)c3nc21` as the molecule, how does the “activity change, negative = inhibition” value read?
Answer: inactive: 7.42%

Question: For `COc1ccccc1CNc1ncnc2c1nnn2C`, which “outcome” value is on record?
Answer: inactive

Question: For `COC(=O)c1c(-c2cccs2)csc1NC(=O)c1ccc(C(C)C)cc1`, which “outcome” value is on record?
Answer: inactive

Question: With `COC(=O)c1ccccc1NC(=O)CCS(=O)(=O)c1nc(-c2ccc3c(c2)OCO3)cc(C(F)(F)F)n1` as the molecule, how does the “activity change, negative = inhibition” value read?
Answer: inactive: -11.6%

Question: With `O=C(NCc1ccc2c(c1)CCN2C(=O)c1ccncc1)c1ccccc1F` as the molecule, how does the “outcome” value read?
Answer: inactive

Question: For `COC(=O)c1ccc(NC(=O)CCc2c(C)nn(-c3ccc(N4CCCCC4)nn3)c2C)cc1`, which “activity change, negative = inhibition” value is on record?
Answer: inactive: -3.39%

Question: With `C[C@@H]1[C@H](C)CC[C@]2(C(=O)O)CC[C@]3(C)C(=CC[C@@H]4[C@@]5(C)CC[C@H](O)C(C)(C)[C@H]5CC[C@]43C)[C@@H]12` as the molecule, how does the “activity change, negative = inhibition” value read?
Answer: inactive: 4.13% [at 92.2 µM]

Question: For `COc1ccccc1NC(=O)C(=O)NCC(c1cccnc1)N1CCc2ccccc2C1` (configuration not stated), which “activity change, negative = inhibition” value is on record?
Answer: inactive: 6.85%

Question: For `COc1cccc(CNC(=O)Cn2c(=O)oc3cc(S(=O)(=O)N4CCCCCC4)ccc32)c1`, which “activity change, negative = inhibition” value is on record?
Answer: inactive: -2.51%

Question: With `O=C(NCc1ccc(F)cc1)c1ccc2oc(=O)n(Cc3ccccc3)c2c1` as the molecule, how does the “outcome” value read?
Answer: inactive

Question: With `O=c1c2oc3ccccc3c2n(Cc2cccc(F)c2)c(=O)n1Cc1ccc2c(c1)OCO2` as the molecule, how does the “outcome” value read?
Answer: inactive

Question: With `C=Cc1ccc(Cn2c(SCC(=O)N3CCN(c4ccc(F)cc4)CC3)nc3ccccc32)cc1` as the molecule, how does the “activity change, negative = inhibition” value read?
Answer: inactive: 4.99%

Question: Which “activity change, negative = inhibition” value does the source give for `Cc1ccccc1CNC(=O)C(=O)NCC(c1cccs1)S(=O)(=O)c1cccs1` (configuration not stated) here?
Answer: inactive: 0.878%

Question: For `COC(=O)c1cccc(CN2C(=O)SC(Nc3ccc(C)cc3)C2=O)c1` (configuration not stated), which “activity change, negative = inhibition” value is on record?
Answer: inactive: 1.31%

Question: Which “activity change, negative = inhibition” value does the source give for `CCc1ccc(NC(=O)Cn2c(=O)c3cc(Cl)ccc3n3nncc23)cc1` here?
Answer: inactive: 0.922%

Question: Which “activity change, negative = inhibition” value does the source give for `CN1CC(=O)N(CC(=O)Nc2ccc(OC(F)(F)F)cc2)c2ccccc2C1=O` here?
Answer: inactive: 7.41%

Question: With `CCOc1ccc(-c2cc(C(=O)NCCc3ccc(OC)c(OC)c3)[nH]n2)cc1` as the molecule, how does the “activity change, negative = inhibition” value read?
Answer: inactive: -1.11%

Question: For `COc1ccc(-n2nc(C(=O)Nc3cc(C)ccn3)c3c4ccccc4n(C)c3c2=O)cc1Cl`, which “activity change, negative = inhibition” value is on record?
Answer: inactive: -1.18%

Question: With `CC(=O)Nc1nonc1-c1nnc(SCc2ccccc2)n1C` as the molecule, how does the “activity change, negative = inhibition” value read?
Answer: inactive: -1.16%

Question: With `CC(=O)c1ccc(N2CCN(c3ccc4cc(S(=O)(=O)N5CCC(C)CC5)ccc4n3)CC2)cc1` as the molecule, how does the “activity change, negative = inhibition” value read?
Answer: inactive: 4.2%

Question: With `CCC(=O)Nc1cccc(-c2nc3cc(C)ccc3o2)c1` as the molecule, how does the “outcome” value read?
Answer: inactive

Question: With `COc1cc(C2CC(=O)Nc3c2c(=O)n(C)c2ncnn32)cc(OC)c1OC` (configuration not stated) as the molecule, how does the “activity change, negative = inhibition” value read?
Answer: inactive: 9.9%

Question: For `CCOC(=O)c1ccc(NC(=O)CCc2nc3cccnc3n2Cc2cccs2)cc1`, which “activity change, negative = inhibition” value is on record?
Answer: inactive: 0.519%

Question: Which “activity change, negative = inhibition” value does the source give for `Cc1cccc(NC(=O)/C(C#N)=C/c2ccc(C)o2)c1` here?
Answer: inactive: -4.36%

Question: Which “activity change, negative = inhibition” value does the source give for `Cc1ccc(S(=O)(=O)c2cn(CC(=O)Nc3ccc(Cl)cc3)c3ccc(F)cc3c2=O)cc1C` here?
Answer: inactive: -19%

Question: For `O=C(CN1c2ccccc2S(=O)(=O)c2ccccc21)Nc1cccc(C(F)(F)F)c1`, which “outcome” value is on record?
Answer: inactive

Question: With `Cc1cccc(Cn2c(Cc3ccccc3)nc3ccccc32)c1` as the molecule, how does the “activity change, negative = inhibition” value read?
Answer: inactive: -2.41%

Question: Which “outcome” value does the source give for `COc1ccc(N2CCN(C(=O)C3CCN(c4nc5ccc(C)cc5[nH]4)CC3)CC2)cc1` here?
Answer: inactive

Question: Which “activity change, negative = inhibition” value does the source give for `CSc1ccc(CCNC(=O)c2c(C)oc3ncn(C)c(=O)c23)cc1` here?
Answer: inactive: -1.31%

Question: Which “activity change, negative = inhibition” value does the source give for `COc1ccccc1N1CCN(c2ncnc3c2c(-c2ccccc2)cn3-c2cccc(C)c2)CC1` here?
Answer: inactive: 2.72%

Question: With `CC1CCN(S(=O)(=O)c2csc(C(N)=O)c2)CC1` as the molecule, how does the “activity change, negative = inhibition” value read?
Answer: inactive: -7.97%

Question: With `CCN1CCN(c2ncnc3c2cnn3-c2cc(Cl)ccc2C)CC1` as the molecule, how does the “activity change, negative = inhibition” value read?
Answer: inactive: 2.12%

Question: For `CCOC(=O)c1c(S(=O)(=O)NCC(=O)N(C)Cc2ccccc2)c(C)n(C)c1C`, which “activity change, negative = inhibition” value is on record?
Answer: inactive: 3.98%

Question: For `CCOC(=O)c1cnc(N2CCN(c3ccc(OC)cc3)CC2)c2ccccc12`, which “activity change, negative = inhibition” value is on record?
Answer: inactive: -7.3%

Question: For `CCOc1ccc2c(c1)c(=O)c(S(=O)(=O)c1ccc(C)cc1)cn2Cc1ccccc1Cl`, which “activity change, negative = inhibition” value is on record?
Answer: inactive: 8.54%

Question: Which “activity change, negative = inhibition” value does the source give for `COc1ccc(-c2cc(=O)c3c(O)cc(O[C@@H]4O[C@H](CO[C@@H]5O[C@@H](C)[C@H](O)[C@@H](O)[C@@H]5O)[C@@H](O)[C@H](O)[C@@H]4O)cc3o2)cc1O` here?
Answer: inactive: 0.669%

Question: For `CC(=O)Nc1nonc1-c1nnc(SCC(=O)Nc2ccc(C)c(Cl)c2)n1C`, which “activity change, negative = inhibition” value is on record?
Answer: inactive: 2.25%

Question: Which “activity change, negative = inhibition” value does the source give for `O=C(CSc1oc(-c2ccc(F)cc2)nc1S(=O)(=O)c1ccc(Br)cc1)NC1CCCCC1` here?
Answer: inactive: -4.99%

Question: For `CCCOc1ccc(C2c3c(oc4ccc(F)cc4c3=O)C(=O)N2CCc2ccc(OC)cc2)cc1` (configuration not stated), which “activity change, negative = inhibition” value is on record?
Answer: inactive: 4.59%

Question: With `Cc1cccc(CN2CCC(CNc3ncnc4onc(-c5ccc(Cl)cc5)c34)CC2)c1` as the molecule, how does the “activity change, negative = inhibition” value read?
Answer: inactive: -3.56%

Question: For `CCCCOC(=O)c1ccc(Nc2ncnc3c2cnn3-c2cccc(C)c2)cc1`, which “activity change, negative = inhibition” value is on record?
Answer: inactive: -8.18%
